For 95 compounds, IFI results are on record in ChEMBL document CHEMBL1157539, “Thousands of chemical starting points for antimalarial lead identification” (Nature, 2010).

In all, about 13,000 compounds were measured (“IFI”: median about 4, highest 2% from about 17 on). The list shows a part of the results.

The assay in a line: GSK_TCMDC: Inhibition Frequency Index (IFI). The number of non-kinase HTS assays where a compound showed > 50 % inhibition, expressed as a percentage of the number of such assays in which the compound was tested (-0 is zero). The format is functional.
Compound `COc1ccc2nccc(N3CCN(CCNCc4ccc5c(n4)NC(=O)CS5)CC3)c2n1` came in with an IFI of 1.43%.

As for `Cc1ccc(O)cc1Nc1ccnc2ccc(-c3cccc(CN(C)C)c3)cc12`, the IFI came out at 3.7%.

With `Brc1ccc(C=NNc2nc3ccccc3[nH]2)cc1`, the IFI is 2.17%.

As for `NC(=O)c1cccc(C(=O)Nc2cccc(-c3ccc(-c4nc5ccccc5[nH]4)s3)c2)c1`, the IFI stood at 3.45%.

On to `COc1ccc2c(N/N=C/c3ccccc3[N+](=O)[O-])ccnc2c1`, for which the IFI worked out at 3.62%.

Compound `COc1cccc(NC(=O)Nc2ccc(Nc3nc(C)cc(N4CCCC4)n3)cc2)c1` came in with an IFI of 17.3%.

Consider `CCN1CCN(c2cc(C)c3cc(NC(=O)c4cncc(Br)c4)ccc3n2)CC1`, for which the IFI came out at 1.35%.

`O=C(NCCN1CCCCC1)c1cc2cc(-c3ccccc3)ccc2n1S(=O)(=O)c1ccccc1` came in with an IFI of 5.33%.

Turning to `O=C(Nc1ccc(C(F)(F)F)cc1)c1cccc(S(=O)(=O)NC2CCN(Cc3ccccc3)C2)c1` (stereo not given), the IFI came out at 8.33%.

`CC1CN(Cc2cccc(-c3ccc(-c4nc5cc(F)ccc5[nH]4)cc3)c2)CC(C)O1` (stereo not given) showed an IFI of 5.56%.

Compound `CCOC(=O)c1cnc2c(OC)cc(OC)c(Cl)c2c1Nc1cccc(C)c1` returned an IFI of 2.84%.

In turn, `N=C(N)NC(=O)Nc1ccc(Cl)c(C(F)(F)F)c1` yielded an IFI of 1.53%.

The compound `CC(=NNC(S)=NCCc1ccccc1)c1ccccn1` yielded an IFI of 4.83%.

As to `NC(=O)c1ccccc1Nc1nc(Nc2ccc(N3CCOCC3)cc2)ncc1[N+](=O)[O-]`, the IFI amounted to 7.04%.

`Cc1cc(NCc2ccccc2)nc2cc(O)ccc12` displayed an IFI of 4.62%.

`COc1ccc2nccc([C@@H](O)CN3CCC(NCc4cc5cc(Cl)ccc5[nH]4)CC3)c2c1` gave an IFI of 5.97%.

In the case of `Oc1ccc(CCNc2nc(NCCCOc3cccc(CN4CCCCC4)c3Cl)nc(N3CCNCC3)n2)cc1`, the IFI was found to be 4.69%.

`CCc1c(CCNCCCCCCNCCc2ccc(Br)cc2)ccc(OC)c1OC` came in with an IFI of 11%.

Compound `CN(C)CCCNc1c2ccccc2nc2ccccc12` yielded an IFI of 3.68%.

Regarding `COc1cc(C)c(NC(=O)c2cccc3c(=O)c(C)c(-c4ccccc4)oc23)cc1OC`, the IFI was 3.64%.

In the case of `O=C(Nc1ccc2c(c1)CCN2C1CCN(Cc2ccc(F)cc2Cl)C1)c1ccco1` (stereo not given), the IFI worked out at 3.33%.

`Cc1cccc(OC2CCN(c3ncc(C(=O)NCCCN4CCCC4=O)cc3Cl)CC2)c1`: the IFI amounted to 5.88%.

In the case of `Cc1cc2nc(-c3ccc(C(=O)NCc4ccc(C(C)(C)C)cc4)cc3)[nH]c2cc1C`, the IFI turned out to be 0%.

The compound `C=C[C@H]1CN(CCCCCCC)CC[C@H]1CCNc1ccnc2ccc(OC)cc12` came in with an IFI of 11.3%.

Take `CN(C)CCN(C)Cc1ccc(-c2ccc(NC(=O)c3ccc(Cl)cc3)cc2)cc1`: the IFI was found to be 9.09%.

`CCOc1ccccc1CCNC(C)Cc1ccc(C(=O)Nc2ccc(CC(C)NCCc3cccc(Cl)c3)cc2)cc1` (stereo not given) gave an IFI of 10%.

Compound `COc1ccc(OCC(=O)Nc2cc(-c3nc4ccccc4[nH]3)ccc2Cl)cc1` returned an IFI of 0%.

For the compound `N#Cc1cc(C(=O)Nc2ccccc2)c(N)nc1SCC(=O)Nc1ccc(Br)cc1`, the IFI came out at 4.44%.

The compound `CCn1c(-c2nonc2N)nc2c(C#CC(C)(C)O)ncc(OCCNCCc3ccc(OC)cc3)c21` registered an IFI of 7.84%.

Regarding `CC1(C)N=C(N)N=C(N)N1OCc1cc(Cl)c(CON2C(N)=NC(N)=NC2(C)C)cc1Cl`, the IFI amounted to 2.8%.

As to `COc1ccc(NC(=O)/C=C/c2ccccc2Cl)cc1OCCN1CCC(NC2CC2)CC1`, the IFI came out at 4.23%.

As to `CC(C)C(C(=O)n1ncc2c3c(N)nc(N)nc3ccc21)C(C)C`, the IFI is 3.05%.

For `Cc1[nH]c2ccc(NS(C)(=O)=O)cc2c1C1CCN(CCC2CCN(C(=O)/C=C/c3ccc(Cl)c(Cl)c3)CC2)CC1`, the IFI is 5.8%.

Compound `FC(F)(F)COc1c(CCNCCCCNCCc2ccc3ccccc3c2OCC(F)(F)F)ccc2ccccc12` registered an IFI of 19.3%.

For `COCc1nc(-c2ccccc2)nc(N2CCN(C(=O)NC(C)C)CC2)c1Cc1ccccc1F`, the IFI stood at 3.45%.

The compound `COc1ccc(CNC2CCN(C)CC2)cc1-c1ccc(S(=O)(=O)NC2CCC2)cc1` displayed an IFI of 4.9%.

For the compound `C[C@@H](NC(=O)c1nn(-c2ccc(Cl)cc2)c(=O)c2ccccc12)C(C)(C)C`, the IFI was -0%.

`Clc1ccc2c(NCCc3ccccn3)ccnc2c1` returned an IFI of -0%.

`Cc1nc2nc(N)nc(N)c2c(C)c1Cc1ccc([N+](=O)[O-])cc1`: the IFI was 1.6%.

In turn, `COc1ccc(Oc2ccc(-c3c(O)cc(C)nc3C)cc2)cc1` returned an IFI of 1.53%.

`CCOc1cc(C(=O)Nc2cccnc2)ccc1-c1nc2cc(Cl)c(Cl)cc2[nH]1` registered an IFI of -0%.

Consider `CCOC(=O)N1CCN(C(=O)Nc2ccc(Cl)cc2)CC1`, for which the IFI was determined as 0%.

With `C=CCCCNCC(NCCCNc1cc(=O)c2ccccc2[nH]1)c1cc(Br)cc(Br)c1` (stereo not given), the IFI was 2.82%.

On to `Cc1cccc2nc(-c3cccc(-c4cccc(NC(=O)COc5ccccc5C(N)=O)c4)c3)[nH]c12`, for which the IFI came out at 6.09%.

For `Cc1ccc(-n2c(Sc3ncnc4sccc34)nnc2N2CCCC2)cc1`, the IFI came to 6.06%.

Turning to `CC(CN(C)C)C(=O)Nc1cccc(-c2cccc(-c3nc4ccccc4[nH]3)c2)c1` (stereo not given), the IFI amounted to 5.41%.

Compound `Cc1cc(NC(=O)c2cccs2)ccc1OC1CCN(Cc2ccc(C#N)cc2)CC1` returned an IFI of 2.99%.

`Cc1ccc(Oc2ccccc2NC(=O)CCc2nc3ccccc3c(=O)[nH]2)cc1` came in with an IFI of -0%.

For the compound `Cc1cc(N[C@@H](CC(C)C)C(=O)NCc2cccc(F)c2)nc(NCC2CCCCC2)n1`, the IFI stood at 18.6%.

`CCN(CC)CCCNc1c2ccccc2nc2ccccc12`: the IFI came out at 2.24%.

Consider `Cc1ccc(C(NC(=O)c2ccccc2)c2ccc3cccnc3c2O)cc1` (stereo not given), for which the IFI was determined as 9.09%.

For `CN(Cc1cccc(O)c1)C1CCN(c2cc(NC(=O)c3cccc(F)c3)ccn2)CC1`, the IFI turned out to be 0%.

In turn, `CN1CCN(c2cccc(Nc3nccc(NCC(O)c4ccccc4)n3)c2)CC1` (stereo not given) showed an IFI of 4.04%.

Take `O=C(Cc1ccccc1)NC1(c2ccccc2)CCN(CCc2c[nH]c3ccc(F)cc23)CC1`: the IFI came out at 4.84%.

The compound `COc1ccc(C=NNc2nc(O)cc(-c3ccccc3)n2)cc1OC` returned an IFI of 0.8%.

With `O=C(NCc1ccccc1)NC(CCCN1CCC(Oc2cccc(Cl)c2)CC1)c1ccc(Cl)c(Cl)c1` (stereo not given), the IFI came out at 9.22%.

Take `CC(C)(C)c1ccc(N2C(N)=NC(N)=NC2(C)C)cc1Cl`: the IFI amounted to 3.73%.

For the compound `CCC(Cc1cnc2nc(N)nc(N)c2n1)c1ccc(C(=O)N[C@@H](CCC(=O)O)C(=O)O)cc1` (stereo not given in full), the IFI stood at 2.21%.

Turning to `CO/C(=C\C=C\c1cc2cc(Cl)c(Cl)cc2[nH]1)C(=O)NCCCN1CCN(c2ccncc2)CC1`, the IFI is 2.16%.

Take `COc1cc2nc(N3CCC(CNC(=O)c4ccc(-c5ccc(C(=O)N(C)C)cc5OCCO)cc4)CC3)nc(N)c2cc1OC`: the IFI came to 0.91%.

For the compound `Fc1cccc(COc2ccc(Nc3ncnc4sc(C#C[C@H]5CC[C@H](CNCC(F)(F)F)N5)cc34)cc2Cl)c1`, the IFI was 2.21%.

The compound `CC(C)(C)[C@@H](Nc1ccc(C#N)c2ccccc12)C(=O)NC1(Cc2ccc(O)cc2)CCCC1` had an IFI of -0%.

Compound `Oc1cccc(Nc2ccnc3cc(-c4nccs4)ccc23)c1` had an IFI of 7.26%.

`CS(=O)(=O)CCNCc1nc(-c2ccc3c(Nc4ccc(Cl)cc4F)ccnc3c2)cs1` came in with an IFI of 7.69%.

`O=C(Nc1ccc2nccc(N3CCN4CCC[C@H]4C3)c2c1)c1ccc(Cl)c(Cl)c1`: the IFI is 0%.

`Cc1ccc2[nH]c(C)cc(=NN=Cc3cccc(F)c3)c2c1`: the IFI came to 4.55%.

`Nc1c2c(nc3ccc(NC(=O)c4ccccc4)cc13)CCCC2` came in with an IFI of 2.86%.

The compound `CC1(CCCCN2CCC(Cc3ccccc3)CC2)C(=O)Nc2ccccc21` (stereo not given) gave an IFI of 2.9%.

On to `O=C(CSc1ccccn1)Nc1c(F)cccc1F`, for which the IFI is 0%.

In turn, `O=C(NCC1CCC(C(=O)NCCc2ccc(Cl)c(Cl)c2)CC1)c1ccc(O)c(-c2ccc(Cl)c(Cl)c2)c1` (stereo not given) showed an IFI of 1.52%.

`CCOC(=O)c1cn(CC)c2cc(F)c(OC3CC4CCC3(C)C4(C)C)cc2c1=O` (stereo not given) gave an IFI of 2.24%.

In turn, `CC(C)=CCN1CCC(C(=O)Nc2ccc(-c3nc4ccccc4[nH]3)cc2)CC1` returned an IFI of 0%.

As for `CCOc1ccc2nc(N(CCCn3ccnc3)C(=O)C=Cc3cccs3)sc2c1`, the IFI was -0%.

In turn, `COc1ccc2nccc([C@@H](O)CN3CCC(NCc4cc5cc([N+](=O)[O-])ccc5[nH]4)CC3)c2c1` returned an IFI of 5%.

The compound `O=C(Nc1cccc(CN2CCCN(Cc3ccsc3)CC2)c1)c1ccc(-c2ccccc2)cc1` registered an IFI of 6.25%.

As to `Nc1cccc(CNCc2cccc(-c3ccc(-c4nc5cc(C(F)(F)F)ccc5[nH]4)cc3)c2)c1`, the IFI was determined as 12.4%.

As for `COc1cc2ncnc(Nc3ccc(OCc4ccccc4)c(OCc4ccccc4)c3)c2cc1OC`, the IFI was 1.6%.

`NCC1CCCN1Cc1cccc(-c2cccc(-c3nc4cc(F)ccc4[nH]3)c2)c1` (stereo not given) gave an IFI of 5%.

Turning to `COc1cccc(C(=O)NCc2cccs2)c1Oc1ccccc1`, the IFI is 0%.

Compound `COc1ccc(-c2cccc(NC(=O)c3cccc(Cl)c3)c2)cc1CN1CCNCC1` showed an IFI of 6.93%.

Take `OC(CNc1ccnc(Nc2cccc(CCN3CCOCC3)c2)n1)c1ccccc1` (stereo not given): the IFI is 9.28%.

In turn, `COc1ccccc1C1CCN(C2CCC(NC(=O)/C=C/c3cccc(Cl)c3)CC2)CC1` (stereo not given) had an IFI of 6.67%.

As for `CN1CCCC1CCNCc1cccc(-c2cnc(N3CCCC(C)(C)C3)nc2)c1` (stereo not given), the IFI came out at 10%.

`Oc1ccc2[nH]c(-c3cccc(F)c3)nc2c1CN1CCC(N2CCCC2)CC1` registered an IFI of 0.96%.

Take `Fc1cccc(COc2ccc(Nc3ncnc4sc(C#CCNC5CCC5)cc34)cc2Cl)c1`: the IFI came to 2.22%.

In turn, `CC(C)c1ccc2oc(-c3ccc(NC(=O)c4ccc([N+](=O)[O-])o4)cc3)nc2c1` registered an IFI of 2.27%.

`Cc1ccc(NC(=O)NC2CCN(CCCCCNC(=O)/C=C/c3ccc(Cl)c(Cl)c3)CC2)cc1` came in with an IFI of 6.04%.

The compound `Fc1ccc2[nH]c(-c3ccc(-c4ccc(CN5CCCCC5)cc4)cc3)nc2c1` gave an IFI of 2.78%.

In the case of `N=C(NCCc1ccccc1Cl)c1ccc2ccccc2c1`, the IFI was 5.15%.

For `CCOc1ccc(Br)cc1/C=C/C(=O)Nc1ccc2c(c1)CCCN(C)C2`, the IFI came to 12.7%.

In turn, `CCCCOC(=O)c1ccc(Nc2cc(C)nc3ccc(OC)cc23)cc1` returned an IFI of 2.44%.

In the case of `O=C(c1ccco1)N1CCN(c2ccc([N+](=O)[O-])c(NC3CC3)c2)CC1`, the IFI worked out at 3.53%.

Compound `CN(C)c1ccc(Br)c(Br)c1` displayed an IFI of 0.72%.

`CC(=O)Nc1cccc(C(=O)Nc2cccc(-c3ccc(-c4nc5cc(F)ccc5[nH]4)s3)c2)c1` came in with an IFI of 9.17%.

In turn, `CCc1ccc(NC(=O)c2ccc(CN3CCCN(Cc4cccc(Cl)c4)CC3)cc2)cc1` came in with an IFI of 12%.
